According to the BET-seq Pho4 binding data (Le et al. 2018):
The list shows a part of the results. Values were computed here from the reads of four pooled replicates and scatter widely.

target: T1, Pho4 (S. cerevisiae) (UniProt P07270); assay: relative binding free energy (BET-seq); higher = weaker binding; settings: reference: library average
T1 sequence: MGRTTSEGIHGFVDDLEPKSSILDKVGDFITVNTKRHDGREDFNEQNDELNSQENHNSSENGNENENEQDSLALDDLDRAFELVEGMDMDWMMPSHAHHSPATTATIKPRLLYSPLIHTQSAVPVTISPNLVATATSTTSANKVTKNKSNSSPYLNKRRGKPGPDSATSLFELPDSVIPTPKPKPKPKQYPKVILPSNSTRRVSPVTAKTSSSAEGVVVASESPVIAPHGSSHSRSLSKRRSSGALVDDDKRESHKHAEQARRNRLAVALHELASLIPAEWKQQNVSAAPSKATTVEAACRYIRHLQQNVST

| Sequence | relative binding free energy [kcal/mol] |
| --- | --- |
| GTAGTCACGTGGAGGG | 0.15 |
| ATTGGCACGTGGTTCA | -0.1 |
| ATTCTCACGTGGTGGC | 0.19 |
| TATGTCACGTGGGTTG | 0.01 |
| TCAATCACGTGTGTGG | 0.08 |
| TCTTGCACGTGGTGTT | 0.01 |
| ACGGGCACGTGGTGTG | -0.3 |
| TGATACACGTGGTGGT | -0.03 |
| GGTAGCACGTGAGCGT | 0.25 |
| AGTGGCACGTGGGGGG | -0.18 |
| AATGTCACGTGTTGGG | 0.14 |
| ACTAGCACGTGGTATG | -0.16 |
| AGGATCACGTGAGAGT | 0.51 |
| CAAGGCACGTGCGGCG | -0.02 |
| AGGGTCACGTGGGCCG | -0.12 |
| TGGTCCACGTGTATTG | 0.06 |
| GAAGGCACGTGAGGCT | 0.09 |
| GCGGGCACGTGTGTGG | -0.07 |
| TTCTGCACGTGAGTAA | 0.3 |
| GGGCGCACGTGCATTG | 0.08 |
| AGTTTCACGTGTAGCT | 0.22 |
| GGCGTCACGTGTAGGT | 0.04 |
| TGTGTCACGTGCTAGA | 0.01 |
| GAATGCACGTGTTAGA | 0.12 |
| GGGTTCACGTGCTAGA | 0.39 |

| Sequence | relative binding free energy [kcal/mol] |
| --- | --- |
| GTTCGCACGTGGTAAT | -0.16 |
| ATTAACACGTGATGTT | 0.19 |
| GTGGTCACGTGTGCGA | 0.09 |
| AGAGTCACGTGTAGAG | 0.23 |
| TTCGTCACGTGGTAAT | 0.1 |
| TTTGTCACGTGAGTCT | 0.29 |
| TAGTTCACGTGATAGG | 0.43 |
| CTGGTCACGTGGTGAT | -0.03 |
| TCGGGCACGTGGGTAT | -0.14 |
| AGCGACACGTGTGGGT | 0.06 |
| TAATTCACGTGTCATG | 0.38 |
| TGGCCCACGTGTTTTG | -0.06 |
| CCGTACACGTGTTGGG | 0.12 |
| TAGTTCACGTGGATAG | 0.34 |
| GCTGTCACGTGTCTTT | 0.13 |
| CTGGGCACGTGGGTCT | -0.21 |
| CGAGGCACGTGGGTAG | -0.19 |
| TATCTCACGTGAGTGG | 0.27 |
| TTCGGCACGTGGGGAC | -0.24 |
| GTGAACACGTGGCGGC | 0.06 |
| TGCTTCACGTGTCGTG | 0.29 |
| TAAGCCACGTGGTAGG | -0.04 |
| GGTGTCACGTGATGTT | 0.24 |
| TACTGCACGTGGCTGG | 0.01 |
| TGGGACACGTGCATGG | 0.08 |

| Sequence | relative binding free energy [kcal/mol] |
| --- | --- |
| AGCGTCACGTGCGTGT | -0.07 |
| TGATGCACGTGGAGTC | 0.08 |
| GGATGCACGTGGGCCT | -0.1 |
| AGGTACACGTGGTCGT | -0.09 |
| GTGTCCACGTGCGGCG | 0.12 |
| GCGTTCACGTGTGTGT | 0.29 |
| CATGGCACGTGAGGTA | 0.09 |
| GGGTACACGTGGGTCT | -0.06 |
| AGCCTCACGTGGGGTG | -0.1 |
| GTTGACACGTGAGCAG | 0.21 |
| TGGTACACGTGCATAG | 0.16 |
| CATTGCACGTGGGTAT | -0.16 |
| TGACACACGTGTTAGT | 0.02 |
| ATTTGCACGTGGAGCG | -0.12 |
| TGCGCCACGTGGGTTT | -0.25 |
| GTCGGCACGTGTTGTC | 0.08 |
| TTCTGCACGTGATATT | 0.05 |
| GCTGTCACGTGATTTT | 0.16 |
| TTGGCCACGTGATCGG | -0.03 |
| GTGCGCACGTGGGCAG | -0.39 |
| TGGGGCACGTGGACTT | -0.08 |
| TATTGCACGTGTTTAC | -0.01 |
| TGGGTCACGTGATCTA | 0.25 |
| TATTTCACGTGGTTTC | 0.21 |
| GGTGGCACGTGAGTAC | 0.11 |

| Sequence | relative binding free energy [kcal/mol] |
| --- | --- |
| TTTAGCACGTGTACTT | -0.01 |
| ACGTTCACGTGTTAAG | 0.24 |
| GAAATCACGTGTTAGG | 0.23 |
| GTGCTCACGTGATTGG | 0.28 |
| TCGAGCACGTGTTTGT | -0.08 |
| AATGCCACGTGGGTTT | -0.08 |
| TGAGGCACGTGGAGCG | -0.15 |
| ACAATCACGTGGGGGG | 0.03 |
| TTCCTCACGTGGTGTG | 0.02 |
| GATTTCACGTGGAGGT | 0.34 |
| CGTGGCACGTGGATAA | -0.14 |
| AATGACACGTGTTCGT | -0.05 |
| TGTGGCACGTGTGCGC | -0.17 |
| ATGGCCACGTGCGGTT | -0.1 |
| CTGTTCACGTGTGGTA | 0.32 |
| AGCGACACGTGTTGTT | -0.03 |
| ATTGACACGTGAGTTG | 0.32 |
| AACTTCACGTGGGGGA | 0.04 |
| TGTTGCACGTGGGAGG | -0.11 |
| AATTACACGTGGGCTG | 0 |
| TGGGACACGTGTTAAA | 0.1 |
| AGGGACACGTGATGGT | 0.15 |
| TCTCGCACGTGGAGGT | 0.04 |
| TAAGGCACGTGGGATT | 0 |
| CGTAGCACGTGAGCGT | 0.18 |

| Sequence | relative binding free energy [kcal/mol] |
| --- | --- |
| TTTGGCACGTGAGGTA | 0.04 |
| AAGTGCACGTGAGAGA | 0.35 |
| GTATCCACGTGGGTGT | -0.07 |
| TCACGCACGTGGGGAG | -0.1 |
| GGTGCCACGTGTTTGG | 0.03 |
| GTCAGCACGTGGTGGA | -0.11 |
| GTGTTCACGTGGGACT | 0.23 |
| GGGGGCACGTGGATCT | 0.07 |
| GGAGACACGTGAGAGG | 0.26 |
| GTGAGCACGTGGAGAG | -0.05 |
| GCGTTCACGTGCGGGG | 0.13 |
| TTTGTCACGTGGGTTA | 0.1 |
| TGGGTCACGTGGAGCC | 0.05 |
| GGGCTCACGTGGTGCT | 0.16 |
| CGAATCACGTGGTGTG | 0.19 |
| ATGAACACGTGATAGG | 0.1 |
| CTGTTCACGTGTGAAG | 0.27 |
| ATATACACGTGGGTAG | -0.13 |
| TGTTGCACGTGTAGAT | 0.19 |
| GATGTCACGTGTTTGT | 0.18 |
| AATCTCACGTGTTTTG | 0.19 |
| ACAGTCACGTGTGGTA | 0.07 |
| ATTATCACGTGGAATT | 0.2 |
| TATGGCACGTGGCGGC | -0.14 |
| AGGTTCACGTGTAGCT | 0.32 |

| Sequence | relative binding free energy [kcal/mol] |
| --- | --- |
| GGTTTCACGTGCGAGA | 0.36 |
| AAGGACACGTGTTTGA | -0.05 |
| TTTTGCACGTGAGCGG | 0.15 |
| CGTGTCACGTGGATGG | 0.09 |
| AAGTGCACGTGTTTAT | -0.11 |
| TATTGCACGTGTGCGC | 0.07 |
| TTCGGCACGTGTGGGG | 0.04 |
| ACGGGCACGTGTTGTT | -0.05 |
| ATTTTCACGTGATGCT | 0.29 |
| CTGGACACGTGACGGG | 0.22 |
| CTCGTCACGTGTTTTT | 0.01 |
| AAGGACACGTGTGCTG | 0.15 |
| AGAGGCACGTGGTAAG | -0.12 |
| GGGTGCACGTGCATGG | -0.08 |
| GAGGTCACGTGAGTAG | 0.29 |
| GAGTTCACGTGGGGAA | 0.21 |
| GATTTCACGTGTAGTG | 0.09 |
| TTAGACACGTGGAAGG | 0.16 |
| TGAGACACGTGTGATG | 0.18 |
| TCATGCACGTGGTATG | -0.13 |
| GAGGTCACGTGTTATA | 0.08 |
